From paper PMC5836133
Some of the results follow. At the low end of the ranking, values are background and their order means little.

System: T1, GST-NbGlk1(82-244)
T1 sequence: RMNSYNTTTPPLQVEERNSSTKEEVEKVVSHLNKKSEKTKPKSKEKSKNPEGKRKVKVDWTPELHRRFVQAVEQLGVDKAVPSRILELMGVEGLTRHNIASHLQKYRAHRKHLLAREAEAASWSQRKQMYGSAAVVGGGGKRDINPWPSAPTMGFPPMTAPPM
Experiment: protein-binding microarray;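 further: rank-based score ranging −0.5 to +0.5 with E above 0.45 taken as significant binding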
Details: NbGlk1 is a Golden2-like transcription factor of Nicotiana benthamiana; high values mean tight binding; most listed sequences are background and not binding sites; double strand, one strand shown

Sequence | binding signal [E-score]
ACCATCTG | -0.0603
ACTACCGC | -0.169
ATCACCCA | 0.0598
AACGGTGG | -0.064
ACCGAGAG | -0.0769
AGGGCGTA | -0.0544
ACATTACG | 0.0909
AACCCAAC | -0.0483
AACGGGTC | -0.414
ACCATGTC | -0.247
ATAGTAAT | 0.315
AAAGCCTG | -0.0597
AAATCATC | 0.235
ACGGGGAA | 0.0143
AGTTACCG | -0.0511
AAAGCCGA | 0.0603
ATTTTATG | 0.188
ATTAGGCA | 0.108
AACCGGTT | -0.0854
AGGCCTAA | -0.223
AAGTGCCC | -0.14
ACGGTGGA | 0.0435

Sequence | binding signal [E-score]
CACTGTGC | -0.287
ACTTCTGC | -0.166
ACCGATCC | 0.0708
AAATGAAT | 0.257
AGCGTGAG | -0.228
AGCGCCAC | -0.261
AAGGTCGA | -0.0622
AAAATCAC | 0.36
CACTGAAC | -0.0448
AACCGCTC | -0.142
CACGATAA | 0.0777
AGCAAGTA | 0.0349
AAACTAAT | 0.0756
ATTGGGTC | -0.0462
AGGATACA | 0.037
AGAATGTG | 0.118
ACGTAAAT | 0.179
AACTTAAA | 0.162
ATGGGGGA | -0.0922
AGGCTACT | -0.318
ATTCTCGG | 0.229
AACGACGA | -0.0854

Sequence | binding signal [E-score]
ATACACTA | 0.0993
ATACGCGG | 0.166
AATTCTGT | 0.223
ACCAGTTC | -0.264
AGGTCTGA | -0.032
AGGTGTAC | -0.119
ATCTCCTA | 0.337
AACATCGG | 0.0869
AGGGGACT | -0.341
AGCGGGAC | -0.172
AAGGCGAT | 0.149
ATGGCAGG | -0.146
AGACGGCC | -0.335
AATCCAAT | 0.408
ACGGATTA | 0.312
ACCTCAGT | -0.208
ACGACGGC | -0.168
CACCACAG | -0.0322
ACATGTTC | -0.0554
AAAACTCT | -0.177
AGAGAATA | 0.243
ATGGACAA | -0.0467

Sequence | binding signal [E-score]
ACACGTCT | -0.129
ATCTTTTG | 0.24
ACCTGACT | -0.305
ATTCGTCA | 0.199
AAAGACCC | -0.261
ACCACATC | 0.00906
AAACCCGG | -0.09
ACTCTCCT | -0.108
ATGGCGAA | -0.0345
ATAGAATC | 0.397
ATGTAGAG | 0.0493
CACAAATA | 0.207
ACGTCATC | -0.0805
AGTAAAAA | 0.149
ATGTCATG | 0.0242
AAATGCAT | 0.0634
AATAGGTC | -0.109
AAATAGCC | -0.0355
AACGGAAT | 0.285
CAATTTCA | 0.182
